Reference: the supplement of paper PMC3334620
Whole data set: some 33,000 sequences, median “E-score (-0.5 to 0.5)” near -0.035, cut for the highest 2% near 0.34. Some of the results follow.

Each sequence was assayed against T1, Mot3 (UniProt P54785) (assay: PBM E-score (8-mer binding enrichment) (E-score (-0.5 to 0.5)); higher = stronger / more preferred TF binding; most listed sequences are background and not binding sites). Settings: protein concentration: 200 nM; construct: GST-full length.
T1 sequence: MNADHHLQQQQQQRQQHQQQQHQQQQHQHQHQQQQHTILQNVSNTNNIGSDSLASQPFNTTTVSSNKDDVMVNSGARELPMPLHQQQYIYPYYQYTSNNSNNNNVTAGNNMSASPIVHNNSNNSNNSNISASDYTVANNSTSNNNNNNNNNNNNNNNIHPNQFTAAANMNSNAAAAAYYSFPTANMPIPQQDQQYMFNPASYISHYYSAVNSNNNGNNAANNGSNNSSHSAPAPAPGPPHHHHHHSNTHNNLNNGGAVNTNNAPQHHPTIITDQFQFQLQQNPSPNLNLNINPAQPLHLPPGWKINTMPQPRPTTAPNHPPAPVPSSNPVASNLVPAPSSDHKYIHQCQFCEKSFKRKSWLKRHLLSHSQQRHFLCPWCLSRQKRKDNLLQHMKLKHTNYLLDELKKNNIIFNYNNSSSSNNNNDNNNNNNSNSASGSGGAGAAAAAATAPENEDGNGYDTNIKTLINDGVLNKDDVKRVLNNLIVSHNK
How it was run: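 PURExpress in vitro transcription/translation supplied GST-tagged yeast transcription factors, either full-length or DNA-binding domain. Applied at about 100-200 nM to universal all-10-mer Agilent arrays double-stranded by primer extension, the bound protein was detected with fluorescent anti-GST. E-scores, modified Wilcoxon-Mann-Whitney statistics, were given by the Universal PBM Analysis Suite to ungapped eight-base words pooled with their reverse complements after masliner normalisation.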

Sequence	PBM E-score
GGAGTGGA	-0.148
GAAAGGCA	0.469
CAACCTAA	0.192
CTGGTGCC	0.272
AAATAACT	0.228
CATTAAGG	0.113
AGCTATGG	-0.363
CGACACCG	-0.102
ACGCCCGT	0.0313
CGTTGAGC	-0.0134
TGGACGAA	0.0129
ATACCATA	0.0582
GTATAGAA	0.00862
CAAAGAAC	0.197
ACCTCAAC	-0.0649
CCATCAGA	-0.195
CTGACGTA	0.0138
CTCGGTGA	-0.2
CCCTCAAG	-0.0978
AGGATCAC	0.0739
ACTGTATA	0.0898
CTAGCGTC	-0.282
ATGAACGG	0.0117
AGTGATCG	-0.0985
CGGTTCAG	-0.077

Sequence	PBM E-score
GGGTGAGA	-0.224
CAGAAATG	0.00635
ACAGCCCC	-0.088
CCCTGACC	-0.00205
CACCACAG	-0.129
ACCAAACA	0.186
ATGATAGA	-0.00308
CCTACAAG	0.164
GAGAGATA	-0.151
CGACTCTA	-0.265
ACGCGATG	0.255
CCAGAAGA	-0.171
CCTTTCAA	-0.0166
GCGCAGAC	-0.0986
AAGGCTTC	0.0148
CTCCCGAC	-0.251
GCTAAAGC	-0.253
CCTAGATC	-0.0674
ATTATTGG	-0.116
CGTACAGC	0.0264
GCGAGCCA	-0.196
CAGATCGG	-0.144
ACTCTGCA	-0.0354
AACCCATC	-0.064
CCCGTAAG	-0.00074

Sequence	PBM E-score
ACCATTTC	-0.123
GTAGTGTA	0.224
CCTCTTTA	0.0245
ATGGACAT	0.0966
ATGCACTA	0.0858
GTTATTCA	0.183
CCAATTGA	-0.105
CAAAATAC	0.249
AGCGATAT	0.0262
GCCCTCCC	-0.206
ATCACCTG	-0.109
CGCCACCC	-0.0907
GGCAAGAC	0.291
TAAGTGAA	-0.0383
GACCCAAA	-0.074
CATGGACA	0.0261
CAGCTATG	-0.132
CCGCTTGA	-0.112
TAGGGCAA	0.046
CAGTCATA	-0.0483
ACCCGACC	-0.0746
GATCGACC	-0.158
ATAATGTA	0.192
CAGTGTTA	0.212
GCGTGGCA	-0.228

Sequence	PBM E-score
AACAGGCG	0.167
ACTCTACG	0.117
ACAGCGTA	-0.0378
GAAGGACA	0.128
AGTTTCTC	-0.214
AAATGTAA	0.346
GGAAACCA	0.0901
ACTTGTCG	-0.162
CAATCAAC	0.148
GGCCTGAA	-0.277
CTACAAAG	0.124
CTACCCAA	0.0795
GTCGCGCA	-0.148
CATGTCCA	0.121
CATTCAGC	-0.12
AAGGGCAA	0.127
ATACCCCG	-0.0852
GATCAGAA	-0.348
AGTGACAG	-0.0401
ACATTCGT	0.126
AGTATCGG	-0.224
ATGATTAA	0.045
TCACACGA	0.24
ACAGACTG	-0.0643
GAAGCGAA	0.0121

Sequence	PBM E-score
TACACTGA	0.226
GCCCTGAC	-0.0113
GACGGTAA	-0.126
AGACGTCG	-0.131
CACCTATA	0.107
ATCGGCCG	-0.282
ACAAAGGA	0.167
CTCCAATA	-0.0656
CAATTAGG	0.149
AAAGGACA	0.0482
AGAAAACA	0.181
CGGAAACC	-0.352
ACAAATGC	0.0928
GTCATGGA	-0.179
TAGCCGCA	-0.238
CCCTCAAA	-0.162
CACTGAGC	0.0343
GTGAGAAC	-0.0713
AGCAACCC	-0.302
AGGGATCA	-0.0433
ATTAATTC	0.119
GTAAAGAC	0.245
AACGGGGT	-0.194
AGACTGGC	-0.124
CTGTTGCA	-0.0202

Sequence	PBM E-score
GCTATCTA	0.0666
ACCTCTTC	-0.00819
AAAACGCC	0.203
GAGGGCCA	-0.269
CGTTAAGC	-0.0403
GGCTTACC	-0.127
CTTCACTC	0.067
AAAACACT	0.0901
AGGCCTAC	-0.0603
ATATCCTG	0.0085
CGGTTAAC	0.116
AACAGATT	0.0933
CGGGTTTC	-0.0743
AAGCCGTG	0.175
CGGTATAA	-0.0252
CATTGTGG	-0.0175
ATTCATTA	0.0801
TCCCAGCA	-0.116
CATCGTTA	-0.109
GACCTCAC	-0.243
AAGCTGTC	-0.153
GAGTCTGC	-0.186
GAACGTAA	0.214
CCCTAACA	0.129
GTACTGGA	0.211

Sequence	PBM E-score
ACGTTGGA	0.0278
AGTCCCGC	-0.222
CAGCCTTC	-0.278
AGAACGTC	-0.115
GATTCTCA	-0.0813
CCAAGTAC	0.00922
AACGAGAT	-0.107
AGGCCCTC	-0.0522
AGGCATCG	0.404
AGGGACGC	-0.099
ACCTGCGC	0.117
GCATTCAA	-0.138
CCCTAATA	-0.188
GCTGTTGA	0.107
CGATCACA	0.128
GAGACATA	0.108
GTGTGCAA	0.128
ACGATGAG	0.104
ACTAAAAA	0.0245
GCCTTTTA	0.335
GATCTTCA	-0.118
AATTAAGA	0.0919
